Experimental data reported in PubChem BioAssay (Tox21).
Several values for one entry are separate records, joined by “and”; a condition that tells them apart may be missing. Identical values can stand only once. Inconclusive results, whose numbers are uncertain, are shown with a selection of clear calls. For some assays here: Where the call is inconclusive, the potency comes from a doubtful curve fit. Some structures have more than one record in an assay (separate samples or runs), and their calls can disagree. Activity calls are given as the source filed them. Unless noted, calls follow the shape of the dose curve; as a rule, active = well fitted curve in the direction sought with a large enough effect in the repeat runs; inconclusive = weak or mixed curves; inactive = no such curve, though single readings can be large; an effect the other way counts as inactive or inconclusive.

How the values were obtained:
[1] = qHTS assay to identify small molecule agonists of the hypoxia (HIF-1) signaling pathway (AID 1224846; active = well fitted activation curve with a large enough effect in the signal ratio in the repeat runs, not every such curve was filed as active; inconclusive = weak or mixed curves; the % refers to the signal ratio; as to activation: % is scaled to controls: 0 for no effect and ±100 for the full control effect); conditions: HRE-bla ME-180 cells, beta-lactamase ratio, 17 h; activation: at 76.8 µM (top of the series) unless noted
How it was run: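 HRE-bla ME-180 cells (beta-lactamase reporter under hypoxia response element) were plated at 2,000 cells/well in medium with 0.5% dialyzed FBS, rested 5 hrs, then given compounds in DMSO for 17 hrs at 37C, 5% CO2. Reporter induction was read with CCF4-AM FRET substrate.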

[2] = qHTS assay to identify small molecule antagonists of the estrogen related receptor (ERR) signaling pathway from Tox21 library (AID 1224848); also: nearly all actives have a fitted effect of over 50% in size
How it was run: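 Cells: ERR line, 2,000/well; 6 h preincubation 37 C/5% CO2. Cpd in DMSO via pin tool; 18 h, 37 C. ONE-Glo, 30 min RT, luminescence.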

[3] = qHTS RealTime-Glo MT Cell Viability Assay in HEK293 cells - 16 hour (AID 1224872); also: nearly all actives have a fitted effect of over 50% in size
How it was run: (§1)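 Reads taken at 0, 8, 16, 24, 32 and 40 h from the same wells. HEK293 cells (600/well) carried RealTime-Glo reagents from seeding, with compound added after a 5 h settle at 37 C.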

[4] = qHTS assay to identify small molecule agonists of H2AX - cell viability counter screen (AID 1224847; calls by dose curve; also: nearly all actives have a fitted effect of over 30% in size)
How it was run: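 CHO-K1 wt, 1000 cells/well, o/n 37C; cpds 15 conc, 3 h 37C, 0.76% DMSO; CellTiter-Glo, 30 min RT, luminescence.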

[5] = qHTS RealTime-Glo MT Cell Viability Assay in HEK293 cells - 32 hour (AID 1224868); also: nearly all actives have a fitted effect of over 50% in size
How it was run: as §1

[6] = qHTS RealTime-Glo MT Cell Viability Assay in HEK293 cells - 40 hour (AID 1224874); conditions: RealTime-Glo luminescence; max response: stronger effect = lower value; also: nearly all actives have a fitted effect of over 50% in size; as to max response: % is scaled to controls: 0 for no effect and ±100 for the full control effect
How it was run: (§2)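 HEK293 cells mixed with RealTime-Glo reagents (NanoLuc plus cell-permeant prosubstrate) at 600 cells/well, preincubated 5 h at 37 C/5% CO2, then given 23 nL compound in DMSO. Nonlytic luminescence from viable cells was read at 0, 8, 16, 24, 32 and 40 h.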

[7] = A CellTox Green Cytotoxicity Assay to monitor cytotoxicity in HEK293 cells - 40 hour (AID 1224871); also: nearly all actives have a fitted effect of over 45% in size
How it was run: (§3)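 HEK293 cells premixed with CellTox Green dye were seeded at 600 cells/well and left 5 h at 37 C/5% CO2 before pin transfer of 23 nL compound in DMSO. Fluorescence from dye bound to dead-cell DNA was read during 40 h treatment.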

[8] = A CellTox Green Cytotoxicity Assay to monitor cytotoxicity in HepG2 cells - 24 hour (AID 1224878); also: nearly all actives have a fitted effect of over 45% in size; as to Cytotoxicity: % is scaled to controls: 0 for no effect and ±100 for the full control effect
How it was run: (§4)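 HepG2 cells were seeded together with the CellTox Green dye at 600 cells/well, left 5 h at 37 C/5% CO2, then given compounds in DMSO. Fluorescence from dye bound to dead-cell DNA was read repeatedly over 40 h of treatment at 37 C.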

[9] = A CellTox Green Cytotoxicity Assay to monitor cytotoxicity in HepG2 cells - 40 hour (AID 1224879); also: nearly all actives have a fitted effect of over 40% in size
How it was run: as §4

[10] = A CellTox Green Cytotoxicity Assay to monitor cytotoxicity in HEK293 cells - 32 hour (AID 1224881); also: nearly all actives have a fitted effect of over 40% in size
How it was run: as §3

[11] = A CellTox Green Cytotoxicity Assay to monitor cytotoxicity in HEK293 cells - 24 hour (AID 1224875); also: nearly all actives have a fitted effect of over 45% in size
How it was run: as §3

[12] = A CellTox Green Cytotoxicity Assay to monitor cytotoxicity in HEK293 cells - 0 hour (AID 1224869); also: nearly all actives have a fitted effect of over 50% in size
How it was run: as §3

[13] = A CellTox Green Cytotoxicity Assay to monitor cytotoxicity in HepG2 cells - 16 hour (AID 1224876); also: nearly all actives have a fitted effect of over 45% in size
How it was run: as §4

[14] = A CellTox Green Cytotoxicity Assay to monitor cytotoxicity in HepG2 cells - 0 hour (AID 1224882); also: nearly all actives have a fitted effect of over 35% in size
How it was run: as §4

[15] = qHTS RealTime-Glo MT Cell Viability Assay in HepG2 cells - 8 hour (AID 1224873); also: nearly all actives have a fitted effect of over 55% in size
How it was run: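 HepG2 cells mixed with RealTime-Glo MT reagents (NanoLuc plus cell-permeant prosubstrate) were seeded at 600 cells/well, incubated 5 h at 37 C/5% CO2, then pinned with compounds in DMSO; nonlytic luminescence tracked viability during 40 h treatment.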

[16] = qHTS RealTime-Glo MT Cell Viability Assay in HEK293 cells - 0 hour (AID 1224880); also: nearly all actives have a fitted effect of over 45% in size
How it was run: as §2
Potency is read from the fitted curve at half-maximal effect; tags tell the direction and shape of the fitted curve or compound fluorescence and quenching.

With CC(C)=CCOc1ccc(/C=C/C(=O)c2ccc(OCC=C(C)C)cc2OCC(=O)O)cc1 the Potency [1] was inconclusive: 26.8 µM [falling, single point], the Potency [2] was inconclusive: 23.7 µM [inhibitor, partial curve] and the Potency [3] was “inactive”.
In the case of Cn1c(=O)cc(Oc2ccc(F)cc2F)c2cnc(NCC(C)(C)O)nc21, the Potency [1] is reported as “inactive”, the Potency [4] is reported as inconclusive: 101 µM [cytotoxic] and the Potency [5] is reported as inconclusive: 24.5 µM [cytotoxic, partial curve]. For the same compound, the Potency [3] was inconclusive: 49 µM [cytotoxic, partial curve, poor fit] and the Potency [6] was inconclusive: 27.5 µM [cytotoxic, partial curve].
In the case of CCCCCC(C)OC(=O)COc1ccc(Cl)c2cccnc12 (centres undefined), the Potency [1] is reported as “inactive”, the Potency [4] is reported as inconclusive: 113 µM [cytotoxic, single point] and the Potency [7] is reported as inconclusive: 61.6 µM [activator, single point]. For the same compound, the Potency [3] was inconclusive: 43.6 µM [cytotoxic, single point], the max response [6] was inactive: -19.2% and the Potency [8] was inconclusive: 54.9 µM [activator, single point]. For the same compound, the Potency [9] was inconclusive: 54.9 µM [activator, single point] and the Potency [10] was inconclusive: 61.6 µM [activator, single point].
For C(=C\c1ccccc1)/CN1CCN(C(c2ccccc2)c2ccccc2)CC1, the Potency [1] was inconclusive: 19 µM [falling, partial curve], the Potency [4] was inconclusive: 39.1 µM [cytotoxic, partial curve] and the Potency [5] was inconclusive: 26.8 µM [cytotoxic, single point]. For the same compound, the Potency [3] was inconclusive: 26.8 µM [cytotoxic, partial curve, poor fit] and the Potency [9] was inconclusive: 23.9 µM [activator, single point].
In the case of CC1C2CC(CC2C2CCCC(O)C2)C1(C)C (centres undefined), the Potency [1] is reported as inconclusive: 54.9 µM [single point], the Potency [4] is reported as active: 89.8 µM and the Potency [11] is reported as active: 49 µM.
In the case of Brc1c2ccccc2cc2ccccc12, the activation [1] is reported as inconclusive: 6.75%, the Potency [4] is reported as inconclusive: 114 µM [cytotoxic, partial curve, poor fit] and the Potency [5] is reported as inconclusive: 62.3 µM [cytotoxic, partial curve, poor fit]. For the same compound, the Potency [3] was inconclusive: 49.5 µM [cytotoxic, single point].
In the case of O=[N+]([O-])c1cccc(S(=O)(=O)O)c1, the Potency [1] is reported as “inactive”, the Potency [2] is reported as active: 27.7 µM and the Potency [7] is reported as inconclusive: 49.7 µM [activator, single point]. For the same compound, the Potency [3] was inconclusive: 35.2 µM [cytotoxic, partial curve].
In the case of CCCCC(CC)COC(=O)CCCCCCCC(=O)OCC(CC)CCCC (centres undefined), the Potency [1] is reported as inconclusive: 54.9 µM [single point], the Potency [4] is reported as inconclusive: 127 µM [cytotoxic, single point] and the Potency [12] is reported as active: 54.9 µM. The Potency [8] was inconclusive: 54.9 µM [activator, single point], the Potency [9] was active: 43.6 µM and inconclusive: 54.9 µM [activator, single point] and the Potency [10] was active: 54.9 µM and inactive.
For O=C(OCC(O)CO)c1ccccc1Nc1ccnc2cc(Cl)ccc12 (centres undefined), the Potency [1] was inconclusive: 26.8 µM [falling, single point], the Potency [4] was inconclusive: 39.1 µM [rising, partial curve] and the Potency [13] was inconclusive: 10.7 µM [activator, single point]. For the same compound, the Potency [8] was “inactive” and the Potency [14] was inconclusive: 15.1 µM [activator, single point].
With CC1=CC(=O)CC(C)(C)C1(O)/C=C/C(C)=C\C(=O)O (centres undefined) the Potency [1] was “inactive” and the Potency [2] was “inactive”.
For NNc1nc(-c2ccccc2)cs1, the Potency [1] was inconclusive: 56.5 µM, the Potency [2] was inconclusive: 4.99 µM [inhibitor, full curve] and the Potency [5] was inconclusive: 63.4 µM [cytotoxic, single point]. The Potency [3] was inconclusive: 56.5 µM [cytotoxic, single point], the Potency [15] was inconclusive: 63.4 µM [falling, partial curve, poor fit] and the Potency [6] was inconclusive: 56.5 µM [cytotoxic, single point]. For the same compound, the Potency [16] was “inactive”.
With Cc1ccc(S(=O)(=O)C(I)I)cc1 the Potency [1] was inconclusive: 12.3 µM [falling, full curve], the Potency [2] was active: 61.1 µM and the Potency [5] was active: 12.3 µM. For the same compound, the Potency [15] was active: 12.3 µM, the Potency [6] was active: 8.71 µM and the Potency [11] was active: 34.7 µM. The Potency [16] was active: 0.616 µM.
